Test results taken from paper PMC5727121.
No constants are given. Whether binding was seen depends on the method and setting. For some assays here: Binding seen in cells or lysates may run through a third protein. Some results given as binding are weak or reduced against the parent protein; the word gives no strength. For some assays here: Sequences can lack the tags named with a protein.

The chains behind the UniProt entries cited, without tags or fusion partners. Residues count along the entry.
UniProt P19490, residues 19-907: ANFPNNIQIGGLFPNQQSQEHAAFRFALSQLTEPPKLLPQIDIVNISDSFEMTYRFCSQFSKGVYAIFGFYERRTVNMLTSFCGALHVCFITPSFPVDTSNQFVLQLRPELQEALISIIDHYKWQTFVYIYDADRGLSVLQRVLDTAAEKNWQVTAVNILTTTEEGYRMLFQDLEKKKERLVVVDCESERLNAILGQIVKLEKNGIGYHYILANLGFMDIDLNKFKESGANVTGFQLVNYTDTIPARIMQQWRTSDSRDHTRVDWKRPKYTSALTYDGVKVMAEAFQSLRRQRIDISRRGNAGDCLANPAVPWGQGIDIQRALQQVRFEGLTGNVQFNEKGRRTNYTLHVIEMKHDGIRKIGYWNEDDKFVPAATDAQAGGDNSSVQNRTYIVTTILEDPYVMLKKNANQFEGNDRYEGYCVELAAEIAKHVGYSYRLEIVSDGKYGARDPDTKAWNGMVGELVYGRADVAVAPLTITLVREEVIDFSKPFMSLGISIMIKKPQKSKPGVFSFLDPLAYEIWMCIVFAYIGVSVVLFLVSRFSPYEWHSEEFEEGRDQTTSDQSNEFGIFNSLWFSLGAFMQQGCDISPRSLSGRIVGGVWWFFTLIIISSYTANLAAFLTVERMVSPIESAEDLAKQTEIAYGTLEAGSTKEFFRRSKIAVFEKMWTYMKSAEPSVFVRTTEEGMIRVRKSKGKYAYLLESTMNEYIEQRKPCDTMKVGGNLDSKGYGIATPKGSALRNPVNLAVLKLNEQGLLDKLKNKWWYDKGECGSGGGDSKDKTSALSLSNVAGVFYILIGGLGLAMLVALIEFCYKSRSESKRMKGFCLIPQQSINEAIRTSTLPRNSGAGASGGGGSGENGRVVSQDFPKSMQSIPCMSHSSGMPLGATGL
UniProt P19491, residues 22-883: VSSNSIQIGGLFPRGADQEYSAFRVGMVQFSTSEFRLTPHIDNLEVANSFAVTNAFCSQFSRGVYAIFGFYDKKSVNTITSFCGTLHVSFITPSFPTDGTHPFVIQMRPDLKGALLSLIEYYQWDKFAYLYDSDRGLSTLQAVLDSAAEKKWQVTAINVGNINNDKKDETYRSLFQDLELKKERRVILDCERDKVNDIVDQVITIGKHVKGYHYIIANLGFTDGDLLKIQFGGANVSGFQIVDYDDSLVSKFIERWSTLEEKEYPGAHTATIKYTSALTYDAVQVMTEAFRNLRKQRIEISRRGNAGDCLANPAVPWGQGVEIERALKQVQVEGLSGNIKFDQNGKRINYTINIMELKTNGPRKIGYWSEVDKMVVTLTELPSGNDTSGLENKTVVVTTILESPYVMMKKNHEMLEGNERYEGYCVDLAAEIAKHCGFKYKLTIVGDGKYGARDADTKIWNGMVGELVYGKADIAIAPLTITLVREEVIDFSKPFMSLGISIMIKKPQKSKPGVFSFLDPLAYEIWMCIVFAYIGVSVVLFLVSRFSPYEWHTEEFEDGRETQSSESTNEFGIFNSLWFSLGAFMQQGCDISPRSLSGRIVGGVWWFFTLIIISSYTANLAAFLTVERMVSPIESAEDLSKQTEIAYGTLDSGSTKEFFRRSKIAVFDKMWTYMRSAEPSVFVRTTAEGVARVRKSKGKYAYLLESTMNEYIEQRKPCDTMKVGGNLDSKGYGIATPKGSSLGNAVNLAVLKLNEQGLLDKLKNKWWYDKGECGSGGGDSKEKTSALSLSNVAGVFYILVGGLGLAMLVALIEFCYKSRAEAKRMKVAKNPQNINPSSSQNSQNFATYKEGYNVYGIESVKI
UniProt Q61768: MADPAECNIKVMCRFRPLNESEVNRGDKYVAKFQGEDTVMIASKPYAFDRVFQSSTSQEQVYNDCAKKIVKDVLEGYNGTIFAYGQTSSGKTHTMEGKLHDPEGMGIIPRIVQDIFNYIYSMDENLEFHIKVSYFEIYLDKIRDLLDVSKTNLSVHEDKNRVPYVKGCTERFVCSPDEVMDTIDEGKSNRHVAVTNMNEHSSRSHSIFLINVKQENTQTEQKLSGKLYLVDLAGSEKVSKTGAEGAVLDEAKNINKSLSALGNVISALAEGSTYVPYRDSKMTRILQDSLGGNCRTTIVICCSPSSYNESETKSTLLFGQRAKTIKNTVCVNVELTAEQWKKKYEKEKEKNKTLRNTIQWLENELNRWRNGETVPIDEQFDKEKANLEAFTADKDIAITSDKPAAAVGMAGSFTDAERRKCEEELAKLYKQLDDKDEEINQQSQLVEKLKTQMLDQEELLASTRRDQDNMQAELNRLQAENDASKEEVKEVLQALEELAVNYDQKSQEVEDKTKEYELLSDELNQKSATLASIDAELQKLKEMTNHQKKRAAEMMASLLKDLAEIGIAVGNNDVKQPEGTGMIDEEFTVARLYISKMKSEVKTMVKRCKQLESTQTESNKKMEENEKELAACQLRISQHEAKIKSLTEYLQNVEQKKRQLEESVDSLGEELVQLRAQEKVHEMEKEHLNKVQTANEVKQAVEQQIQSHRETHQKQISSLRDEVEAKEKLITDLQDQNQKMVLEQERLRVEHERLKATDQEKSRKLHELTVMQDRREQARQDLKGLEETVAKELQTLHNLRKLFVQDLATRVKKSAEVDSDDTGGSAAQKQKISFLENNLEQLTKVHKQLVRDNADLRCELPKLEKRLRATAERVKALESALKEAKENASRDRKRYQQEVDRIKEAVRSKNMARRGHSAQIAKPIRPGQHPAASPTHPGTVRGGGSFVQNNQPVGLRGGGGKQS

B1: HA-tagged Ferric Chelate Reductase 1 Like protein (HA-FRRS1L) (protein, UniProt B1AXV0 29-293)
chain: SPADDSAGPGGRGPRGRARGDAGADEAVPRHDSSYGTFASEFYDLRYLSEEGYPFPTAPPVDPFAKIKVEDCGRTKGCFRYGKPGCNAETCDYFLSYRMIGADVEFELSADTDGWVAVGFSSDKKMGGDDVMACVHDDNGRVRIQHFYNVGQWAKEVQRNPARDEEGVFENNRVTCRFKRPVNVPRDETIVDLHLSWYYLFAWGPAIQGAITRHDIDSPPASERVVSIYKYEDIFMPSAAYQTFSSPFCLLLIVALTFYLLMGTP
B2: endogenous (native) FRRS1L (protein, UniProt B1AXV0 29-293)
chain: SPADDSAGPGGRGPRGRARGDAGADEAVPRHDSSYGTFASEFYDLRYLSEEGYPFPTAPPVDPFAKIKVEDCGRTKGCFRYGKPGCNAETCDYFLSYRMIGADVEFELSADTDGWVAVGFSSDKKMGGDDVMACVHDDNGRVRIQHFYNVGQWAKEVQRNPARDEEGVFENNRVTCRFKRPVNVPRDETIVDLHLSWYYLFAWGPAIQGAITRHDIDSPPASERVVSIYKYEDIFMPSAAYQTFSSPFCLLLIVALTFYLLMGTP
B3: TARP γ8 (protein, UniProt Q8VHW2 1-423)
chain: MESLKRWNEERGLWCEKGVQVLLTTIGAFSAFGLMTIAISTDYWLYTRALICNTTNLTAGDDGPPHRGGSGSSEKKDPGGLTHSGLWRICCLEGLKRGVCVKINHFPEDTDYDHDSAEYLLRVVRASSIFPILSAILLLLGGVCVAASRVYKSKRNIILGAGILFVAAGLSNIIGVIVYISANAGEPGPKRDEEKKNHYSYGWSFYFGGLSFILAEVIGVLAVNIYIERSREAHCQSRSDLLKAGGGAGGSGGSGPSAILRLPSYRFRYRRRSRSSSRGSSEASPSRDASPGGPGGPGFASTDISMYTLSRDPSKGSVAAGLASAGGGGSGAGVGAYGGAAGAAGGGGAGSERDRGSSAGFLTLHNAFPKEAASGVTVTVTGPPAAPAPAPAPPAPAAPAPGTLSKEAAASNTNTLNRKTTPV

How the values were obtained:
[1] = molecular target: Flag-tagged GluA1 (Flag-GluA1) subunit of the AMPAR (UniProt P19490); test: co-IP; HEK cells co-transfected with HA-FRRS1L and Flag-GluA1 or Flag-GluA2(Q); lysis buffer 25 mM Tris pH 7.4, 1% Triton X-100, 150 mM NaCl, 5% glycerol, 1 mM EDTA; anti-Flag M2 affinity beads overnight at 4°C; blotted with anti-HA
[2] = molecular target: Flag-tagged GluA2 (Flag-GluA2 (Q)) subunit of the AMPAR (UniProt P19491); test: as above
[3] = molecular target: HA-tagged Ferric Chelate Reductase 1 Like protein (HA-FRRS1L) (mouse) (UniProt B1AXV0); test: co-IP; dimerization experiment: HEK cells co-transfected with HA-FRRS1L and FRRS1L-Myc for 48 h; lysates immunoprecipitated with an anti-HA antibody; blotted with anti-Myc
[4] = molecular target: kinesin heavy chain KIF5B (mouse (endogenous in hippocampus)) (UniProt Q61768); test: vesicle immunoisolation; detergent-free adult mouse hippocampal homogenate, 8/35 interphase of a sucrose step gradient; incubated overnight with dynein (DIC) or kinesin (KIF5B) antibody, then protein G dynabeads; Western blot of what came down with the intact vesicles

Row | Binder | binding [1] | binding [2] | binding [3] | binding [4]
1 | B1 | binds | binds | no binding | –
2 | B2 | – | – | – | no binding
3 | B3 | – | – | – | no binding
